Results: article PMC10293653 (International Journal of Biological Macromolecules, 2023)

Molecular target: SARS-CoV-2 PLpro (Severe acute respiratory syndrome coronavirus 2, UniProt P0DTD1)
Assay: PLpro gel-based assay
Assay type: biochemical
Conditions: 10 μM, 100 μM, and 500 μM; pre-incubation 10 or 20 min

Compound	inhibitory effect on PLpro
CC#CCn1c(N2CCC[C@@H](N)C2)nc2c1c(=O)n(Cc1nc(C)c3ccccc3n1)c(=O)n2C [Linagliptin, linagliptin]	unable to see any significant inhibitory effect
N[C@@H](CC(=O)N1CCn2c(nnc2C(F)(F)F)C1)Cc1cc(F)c(F)cc1F [Sitagliptin, sitagliptin]	unable to see any significant inhibitory effect
